Where a chain is given by its changes, count along the chain named. The list shows a part of the results.

The labels stand for the following.
B1: GAGGUCA (DNA:RNA)
RNA: GGGAGACCGGAAUUCAGAUUGUCCGAGGUCAUUAAAUCCCGUCGUAGCCACCA
DNA 1: CAATCTGAATTCCGGTCTCCC
DNA 2: TGGTGGCTACGACGGGATT
B2: UAUAAAU (DNA:RNA)
RNA: B1 RNA with G25U, G27U, G28A, U29A, C30A, A31U
DNA 1: CAATCTGAATTCCGGTCTCCC
DNA 2: TGGTGGCTACGACGGGATT
B3: GUCCUGA (DNA:RNA)
RNA: B1 RNA with A26U, G27C, G28C, C30G
DNA 1: CAATCTGAATTCCGGTCTCCC
DNA 2: TGGTGGCTACGACGGGATT
B4: UACGCUU (DNA:RNA)
RNA: B1 RNA with G25U, G27C, U29C, C30U, A31U
DNA 1: CAATCTGAATTCCGGTCTCCC
DNA 2: TGGTGGCTACGACGGGATT
B5: UUUUGGU (DNA:RNA)
RNA: GGGAGACCGGAAUUCAGAUUGUCCUUUUGGUUUAAAUCCCGUCGUAGCCACCA
DNA 1: CAATCTGAATTCCGGTCTCCC
DNA 2: TGGTGGCTACGACGGGATT
B6: AUCCCAC (DNA:RNA)
RNA: B5 RNA with U25A, U27C, U28C, G29C, G30A, U31C
DNA 1: CAATCTGAATTCCGGTCTCCC
DNA 2: TGGTGGCTACGACGGGATT
B7: AAUGAAC (DNA:RNA)
RNA: B1 RNA with G25A, G27U, U29A, C30A, A31C
DNA 1: CAATCTGAATTCCGGTCTCCC
DNA 2: TGGTGGCTACGACGGGATT
B8: GCCGGGC (DNA:RNA)
RNA: B1 RNA with A26C, G27C, U29G, C30G, A31C
DNA 1: CAATCTGAATTCCGGTCTCCC
DNA 2: TGGTGGCTACGACGGGATT
B9: CCGGGGC (DNA:RNA)
RNA: B1 RNA with G25C, A26C, U29G, C30G, A31C
DNA 1: CAATCTGAATTCCGGTCTCCC
DNA 2: TGGTGGCTACGACGGGATT
B10: UGUGAUC (DNA:RNA)
RNA: B5 RNA with U26G, U28G, G29A, G30U, U31C
DNA 1: CAATCTGAATTCCGGTCTCCC
DNA 2: TGGTGGCTACGACGGGATT
B11: AAUGGCG (DNA:RNA)
RNA: B1 RNA with G25A, G27U, U29G, A31G
DNA 1: CAATCTGAATTCCGGTCTCCC
DNA 2: TGGTGGCTACGACGGGATT
B12: GAAAUGC (DNA:RNA)
RNA: B1 RNA with G27A, G28A, C30G, A31C
DNA 1: CAATCTGAATTCCGGTCTCCC
DNA 2: TGGTGGCTACGACGGGATT
B13: UCUACCG (DNA:RNA)
RNA: B5 RNA with U26C, U28A, G29C, G30C, U31G
DNA 1: CAATCTGAATTCCGGTCTCCC
DNA 2: TGGTGGCTACGACGGGATT
B14: GGGACGC (DNA:RNA)
RNA: B1 RNA with A26G, G28A, U29C, C30G, A31C
DNA 1: CAATCTGAATTCCGGTCTCCC
DNA 2: TGGTGGCTACGACGGGATT
B15: GUAUAUU (DNA:RNA)
RNA: B5 RNA with U25G, U27A, G29A, G30U
DNA 1: CAATCTGAATTCCGGTCTCCC
DNA 2: TGGTGGCTACGACGGGATT
B16: CGCUGGG (DNA:RNA)
RNA: B5 RNA with U25C, U26G, U27C, U31G
DNA 1: CAATCTGAATTCCGGTCTCCC
DNA 2: TGGTGGCTACGACGGGATT
B17: UCCAAUC (DNA:RNA)
RNA: B5 RNA with U26C, U27C, U28A, G29A, G30U, U31C
DNA 1: CAATCTGAATTCCGGTCTCCC
DNA 2: TGGTGGCTACGACGGGATT
B18: CCUACUC (DNA:RNA)
RNA: B5 RNA with U25C, U26C, U28A, G29C, G30U, U31C
DNA 1: CAATCTGAATTCCGGTCTCCC
DNA 2: TGGTGGCTACGACGGGATT
B19: GCUAAAA (DNA:RNA)
RNA: B1 RNA with A26C, G27U, G28A, U29A, C30A
DNA 1: CAATCTGAATTCCGGTCTCCC
DNA 2: TGGTGGCTACGACGGGATT
B20: CGUGCGU (DNA:RNA)
RNA: B5 RNA with U25C, U26G, U28G, G29C
DNA 1: CAATCTGAATTCCGGTCTCCC
DNA 2: TGGTGGCTACGACGGGATT
B21: UUCCAUC (DNA:RNA)
RNA: B5 RNA with U27C, U28C, G29A, G30U, U31C
DNA 1: CAATCTGAATTCCGGTCTCCC
DNA 2: TGGTGGCTACGACGGGATT
B22: GUCUUCU (DNA:RNA)
RNA: B1 RNA with A26U, G27C, G28U, A31U
DNA 1: CAATCTGAATTCCGGTCTCCC
DNA 2: TGGTGGCTACGACGGGATT
B23: GCGUCCU (DNA:RNA)
RNA: B1 RNA with A26C, G28U, U29C, A31U
DNA 1: CAATCTGAATTCCGGTCTCCC
DNA 2: TGGTGGCTACGACGGGATT
B24: GCCUGCG (DNA:RNA)
RNA: B1 RNA with A26C, G27C, G28U, U29G, A31G
DNA 1: CAATCTGAATTCCGGTCTCCC
DNA 2: TGGTGGCTACGACGGGATT
B25: CUCACCU (DNA:RNA)
RNA: B5 RNA with U25C, U27C, U28A, G29C, G30C
DNA 1: CAATCTGAATTCCGGTCTCCC
DNA 2: TGGTGGCTACGACGGGATT
B26: GGAUUGU (DNA:RNA)
RNA: B5 RNA with U25G, U26G, U27A, G29U
DNA 1: CAATCTGAATTCCGGTCTCCC
DNA 2: TGGTGGCTACGACGGGATT
B27: AAGUGUG (DNA:RNA)
RNA: B1 RNA with G25A, G28U, U29G, C30U, A31G
DNA 1: CAATCTGAATTCCGGTCTCCC
DNA 2: TGGTGGCTACGACGGGATT
B28: UACGAGA (DNA:RNA)
RNA: B1 RNA with G25U, G27C, U29A, C30G
DNA 1: CAATCTGAATTCCGGTCTCCC
DNA 2: TGGTGGCTACGACGGGATT
B29: GCUGGAA (DNA:RNA)
RNA: B1 RNA with A26C, G27U, U29G, C30A
DNA 1: CAATCTGAATTCCGGTCTCCC
DNA 2: TGGTGGCTACGACGGGATT
B30: AGAAAUU (DNA:RNA)
RNA: B5 RNA with U25A, U26G, U27A, U28A, G29A, G30U
DNA 1: CAATCTGAATTCCGGTCTCCC
DNA 2: TGGTGGCTACGACGGGATT
B31: GAGAACC (DNA:RNA)
RNA: B1 RNA with G28A, U29A, A31C
DNA 1: CAATCTGAATTCCGGTCTCCC
DNA 2: TGGTGGCTACGACGGGATT

The target in this assay is T1, RBFOX1 RRM (Homo sapiens, UniProt Q9NWB1 109-208).
T1 sequence: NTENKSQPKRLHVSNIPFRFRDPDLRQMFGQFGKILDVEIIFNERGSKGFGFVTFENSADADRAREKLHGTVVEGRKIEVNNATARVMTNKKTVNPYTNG
The assay is described as follows: EMSA; HiTS-Eq, 1 nM pool, 10 min; buffer printed only for the single-RNA assays: 10 mM Tris pH 7.5, 150 mM NaCl, 3.4 mM EDTA, 0.001% NP-40, 30 C. To be noted: tags: His6 N-terminal (pET28a); label: 5' 32P. The method, boiled down: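 Purified wild-type or mutant RbFox RRM at increasing concentrations was equilibrated with 1 nM of 5′-radiolabelled RNA carrying 7 randomized nucleotides for 10 min in 50 µL. Unbound RNA was separated by 8% native PAGE and sequenced. Relative association constants came from read-count changes of each RNA species compared with the control reaction, normalised to the cognate motif.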
Background: In EMSA bound probe runs differently from free probe, usually more slowly.
For the molecule B1, the binding signal was 0.0153 KA relative to UGCAUGU.
Consider B2, for which the binding signal was 0.00511 KA relative to UGCAUGU.
Take B3: the binding signal was 0.0213 KA relative to UGCAUGU.
With B4, the binding signal was 0.00861 KA relative to UGCAUGU.
As for B5, the figure is 0.0172 KA relative to UGCAUGU; as for B6, 0.00181 KA relative to UGCAUGU.
As for B7, the figure is 0.00481 KA relative to UGCAUGU.
Consider B8, for which the binding signal was 0.0282 KA relative to UGCAUGU.
Take B9: the binding signal was 0.0147 KA relative to UGCAUGU.
On to B10, for which the binding signal is 0.0227 KA relative to UGCAUGU.
For B11 the value was 0.0138 KA relative to UGCAUGU; for B12, 0.0136 KA relative to UGCAUGU.
Consider B13, for which the binding signal was 0.00317 KA relative to UGCAUGU.
As for B14, the figure is 0.0262 KA relative to UGCAUGU; as for B15, 0.00511 KA relative to UGCAUGU.
Turning to B16, the binding signal is 0.00732 KA relative to UGCAUGU.
B17: the binding signal is 0.00543 KA relative to UGCAUGU.
Turning to B18, the binding signal was 0.00173 KA relative to UGCAUGU.
As for B19, the figure is 0.00324 KA relative to UGCAUGU.
As for B20, the figure is 0.0143 KA relative to UGCAUGU; as for B21, 0.00348 KA relative to UGCAUGU; as for B22, 0.0169 KA relative to UGCAUGU.
As for B23, the binding signal is 0.0104 KA relative to UGCAUGU.
As to B24, the binding signal was 0.0321 KA relative to UGCAUGU.
In the case of B25, the binding signal was 0.00322 KA relative to UGCAUGU.
For the molecule B26, the binding signal was 0.0266 KA relative to UGCAUGU.
For the molecule B27, the binding signal was 0.0144 KA relative to UGCAUGU.
Regarding B28, the binding signal is 0.00972 KA relative to UGCAUGU.
As for B29, the binding signal was 0.0119 KA relative to UGCAUGU.
As for B30, the figure is 0.00368 KA relative to UGCAUGU.
In the case of B31, the binding signal is 0.00801 KA relative to UGCAUGU.

The record behind these values is PMC9911399, “Two distinct binding modes provide the RNA-binding protein RbFox with extraordinary sequence specificity”.
